Results taken from patent US20260116991A1.
Several values for one entry are separate records, joined by “and”; a condition that tells them apart may be missing. Equal entries are not always repeated.

Assays:
[1] = biological target: monkey GPC3-His protein (monkey); assay: ELISA, monkey GPC3-His coated
[2] = biological target: monkey GPC3 on HEK293T-monkey GPC3 cells (monkey); assay: FACS on HEK293T-monkey GPC3 cells

- OD450 at 0.0001 nM [1]: 0.05 OD450
- OD450 at 0.001 nM [1]: 0.1 OD450
- OD450 at 0.01 nM [1]: 0.41 OD450
- OD450 at 0.1 nM [1]: 1.68 OD450
- OD450 at 1 nM [1]: 2.19 OD450
- OD450 at 10 nM [1]: 2.45 OD450
- OD450 at 100 nM [1]: 2.28 OD450
- EC50 [2]: 0.44 nM and 0.56 nM
B1: T2-23 scFv-hFc (Fc fusion)
chain: QSALTQPPSASGSPGQSVTISCTGTSSDVGGYNYVSWYQQYPGKAPKLLIYGNSNRPSGVPDRFSGSKSGTSASLAITGLQAEDGADYYCQSYDSSLRVVFGGGTKVTVLGGGGGSGGGGSGGGGSQVQLQESGGGLVQPGRSLRLSCAASGFTFSSYAMHWVRQAPGKGLEWVSAISSSGRSTYYADSVEGRFTISRDNSKNTLYLQMNSLRAEDTAVYYCAKDRRGSHADALNVWGQGTLVTVSS[human IgG1 Fc with changes not shown]
